42 sequences from paper PMC7819943, “Rice protein-binding microarrays: a tool to detect cis-acting elements near promoter regions in rice” can be followed below.

The list shows a part of the results.

The test addresses T1, OsWOX13 (Oryza sativa, UniProt Q5QMM3 1-267).
T1 sequence: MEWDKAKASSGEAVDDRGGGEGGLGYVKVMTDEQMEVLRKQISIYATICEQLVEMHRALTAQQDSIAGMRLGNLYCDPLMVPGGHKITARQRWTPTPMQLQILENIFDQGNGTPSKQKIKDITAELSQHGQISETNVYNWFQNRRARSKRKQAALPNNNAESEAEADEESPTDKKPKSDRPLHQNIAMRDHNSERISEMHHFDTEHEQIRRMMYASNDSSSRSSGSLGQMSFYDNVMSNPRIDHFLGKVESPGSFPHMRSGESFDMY
Kind of test: protein-binding microarray (RPBM); PBS, 2% BSA, 51.3 ng/ul salmon testes DNA, 50 uM zinc acetate, 200 nM TF, 25 C, 1 h; high values mean tight binding. The conditions noted are these: protein: recombinant; tags: N-terminal polyhistidine and DsRed monomer fusion (pET32a); label: CyDye5-dUTP incorporated in the synthesized complementary strand; 3' TTTTT single-stranded linker to array surface; dsDNA, one strand shown. Put shortly: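 The binding signal is fluorescence intensity per feature, in arbitrary units, read on an Axon 4000B scanner. Polyhistidine- and DsRed-tagged transcription factors (N-terminal fusions) from E. coli BL21-CodonPlus were purified on Ni–NTA and applied at 200 nM for 1 h at 25 °C to a double-stranded, BSA-blocked custom Agilent array in buffer with 50 µM zinc acetate.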
For “AGCTAGATTGTTGTACCCATTACTTGAGTGTAAGCTATTACGGAGTCACCTAGTGCAG”, the binding signal is 8150 fluorescence intensity (a.u.).
As to “CAGATATGCTTAATTGATGGCCAGATGAACAGCTAATAGTCGGAGTCACCTAGTGCAG”, the binding signal was 47700 fluorescence intensity (a.u.).
The value for “TTTGATTGTTGTGCCGTTTGGCTGAACCTGTACTGGTATGCGGAGTCACCTAGTGCAG” was 44100 fluorescence intensity (a.u.).
The value for “ACCTAACACAAATAATGTGACAGCAAGTGGTTAGCAATAACGGAGTCACCTAGTGCAG” was 3310 fluorescence intensity (a.u.); that for “GATGCCGCAATTGACTGATGAACTTGCGGCGCAGGCGCAGCGGAGTCACCTAGTGCAG” was 11600 fluorescence intensity (a.u.); that for “TATCCAATTTGATCATATCTGGAATCATATGCAGTCAGCACGGAGTCACCTAGTGCAG” was 4020 fluorescence intensity (a.u.).
The figure for “GAGCTTGATTGCCAAAACACAAACTCACTCGCGGCTGCAACGGAGTCACCTAGTGCAG” is 39100 fluorescence intensity (a.u.).
Regarding “ATTGACATTTTGTTGACAATACCATTATACACTCACATTTCGGAGTCACCTAGTGCAG”, the binding signal was 3340 fluorescence intensity (a.u.).
Take “ACGGTAATTAACGTTGATTACCATAATTAGCGGCGCATTGCGGAGTCACCTAGTGCAG”: the binding signal was 65200 fluorescence intensity (a.u.).
Turning to “GTTTAACTTGCTAAATTAAATGGAGAGTTGACCAAATAGACGGAGTCACCTAGTGCAG”, the binding signal was 4390 fluorescence intensity (a.u.).
Take “CAAATCAATAATTAAATATATTTTCATAATAAATTTGTCTCGGAGTCACCTAGTGCAG”: the binding signal was 25900 fluorescence intensity (a.u.).
As to “ATAGTTAATTAATGATGCATTAGAAGCCTTAGTAGATTGGCGGAGTCACCTAGTGCAG”, the binding signal was 38600 fluorescence intensity (a.u.).
The figure for “TTTTAATTTCATAAATATTCAACAATTAAAACTAGATTTGCGGAGTCACCTAGTGCAG” is 7010 fluorescence intensity (a.u.).
The figure for “TTTAGTTAATTAGTAGTTGTTAATTATCTTCACTAACCTTCGGAGTCACCTAGTGCAG” is 28800 fluorescence intensity (a.u.); for “CGCCAATCATGCTATGATTATTTTACTGGGCATAATACTACGGAGTCACCTAGTGCAG” it is 36300 fluorescence intensity (a.u.).
The value for “ACTCCTGATCAATTAATCATCTCTCAGACTCAGTTTACAACGGAGTCACCTAGTGCAG” was 21900 fluorescence intensity (a.u.); that for “TGGGTTATTTCGTTGATTGCCGAGAATTCGAGCATGCGATCGGAGTCACCTAGTGCAG” was 15000 fluorescence intensity (a.u.); that for “CTATTAAATTGGCTAGAGATGAATTGGAGCTAGTAGTGGGCGGAGTCACCTAGTGCAG” was 43200 fluorescence intensity (a.u.).
In the case of “CGGTAAATTATACTTATATGAAATAGTTTGAAAGGGTTAACGGAGTCACCTAGTGCAG”, the binding signal was 7120 fluorescence intensity (a.u.).
On to “GTAATTGATTTTCTGGCGCGATTAAGAGCTTGGTATATAGCGGAGTCACCTAGTGCAG”, for which the binding signal is 59200 fluorescence intensity (a.u.).
The figure for “AAAATAGATGAACTAAATGCCCCTCCGTTGAGCAGTTCTGCGGAGTCACCTAGTGCAG” is 6740 fluorescence intensity (a.u.).
On to “TGATGAGACAGGCATGGTTGATTGATGTGTGGACAAAGCTCGGAGTCACCTAGTGCAG”, for which the binding signal is 31000 fluorescence intensity (a.u.).
Regarding “GCATATTTTGAGATTGACGAAGTCACCACAGGCGCCTCGCCGGAGTCACCTAGTGCAG”, the binding signal was 12400 fluorescence intensity (a.u.).
The figure for “TGCTTGATTGCAGCTTGGACTTTGGAGTACGAATTGAAAGCGGAGTCACCTAGTGCAG” is 28100 fluorescence intensity (a.u.); for “GCTTTGACTGCTCATGCGGTTACTCTCCACTCGTGAGGGGCGGAGTCACCTAGTGCAG” it is 5000 fluorescence intensity (a.u.).
On to “TGCTGATGGAATGCCGTGGAAATTCATTCCAACACAGAGACGGAGTCACCTAGTGCAG”, for which the binding signal was 12200 fluorescence intensity (a.u.).
For “ATGTAATTTACGTGAGTCTGTACACATGTTTCCTGCATTTCGGAGTCACCTAGTGCAG”, the binding signal is 9360 fluorescence intensity (a.u.).
As to “TATAATTTTACTAGCTATCATCATGTTCAAAATTACATTCCGGAGTCACCTAGTGCAG”, the binding signal was 6430 fluorescence intensity (a.u.).
Take “TAAATTTTAATTTTCTGATTGGTATGCCACGTTAGTGAAACGGAGTCACCTAGTGCAG”: the binding signal is 27700 fluorescence intensity (a.u.).
Consider “CAAGTTTAATTAACATCCCTTAAACCGTAATATCAAGAATCGGAGTCACCTAGTGCAG”, for which the binding signal is 8360 fluorescence intensity (a.u.).
The value for “CAACATAATTACTACTACTAAGATAGTCCTATTTTCTTTTCGGAGTCACCTAGTGCAG” was 5760 fluorescence intensity (a.u.); that for “TCTTATGTCAATTAGACCAAAGGGATGGATATTAAATGATCGGAGTCACCTAGTGCAG” was 13000 fluorescence intensity (a.u.); that for “GTCTGATGAAACTGTTGGCTGAATGGCTCCGGACCCACGACGGAGTCACCTAGTGCAG” was 7120 fluorescence intensity (a.u.).
Turning to “GCAGTAATTAAGTAGCTAGCAGAGGGGCAGAGAGAGAGAGCGGAGTCACCTAGTGCAG”, the binding signal was 10100 fluorescence intensity (a.u.).
On to “TATATATATATATATATATATAGAGGAACTGGATATTTGGCGGAGTCACCTAGTGCAG”, for which the binding signal is 6430 fluorescence intensity (a.u.).
The figure for “AGCTTTTCAGACTGAAAATGTAATAGACAACCTTATCAGACGGAGTCACCTAGTGCAG” is 3810 fluorescence intensity (a.u.); for “GATGTTAAATTTGTAGTTTTATAATACGATACCTTTAAATCGGAGTCACCTAGTGCAG” it is 4340 fluorescence intensity (a.u.).
The figure for “ACTGATTTTAAAACTGAGGTCGAGGTCGAGGCAGGGCCTACGGAGTCACCTAGTGCAG” is 16000 fluorescence intensity (a.u.); for “CTACTTGATTAATCATAATAATATACTCAATCTTTGTTTTCGGAGTCACCTAGTGCAG” it is 44200 fluorescence intensity (a.u.).
Take “CTAATATATTGACGTGCAATTCTTTTACGTCTTCGCGAAACGGAGTCACCTAGTGCAG”: the binding signal was 6160 fluorescence intensity (a.u.).
The value for “TAGATTACTGATAAAACCTATTACATAACCCCTGGGCTATCGGAGTCACCTAGTGCAG” was 3810 fluorescence intensity (a.u.).
For “ATATATAAATTGTATGATTCTCTCTATTATAATCTTTCCACGGAGTCACCTAGTGCAG”, the binding signal was 4350 fluorescence intensity (a.u.).
